Experimental data taken from PubChem BioAssay AID1645886 (National Center for Advancing Translational Sciences (NCATS), 2021).
Values joined by “and” are separate entries in the source; they are usually repeats but may differ in a detail not shown here. Identical values can stand only once. The campaign covered roughly 16,000 compounds. About 260 (1.6%) were called active. The inconclusive results got no clear call from the source; some entries with a clear call stand among them for comparison. Calls come from the whole dose curve; as a rule, active = well fitted inhibition curve with a large enough effect; inconclusive = small, poorly fitted or top-dose-only effect; inactive = no such curve, though single readings can be large or run the other way. Potencies of inconclusive entries are left out as doubtful fits.

The compounds below were run against Rap guanine nucleotide exchange factor 4 (Homo sapiens) (UniProt Q8WZA2) (assay: Validation qHTS for antagonist of cAMP-regulated guanine nucleotide exchange factor 4 (EPAC2)). Details: EPAC2 Rap1B BODIPY-GDP exchange, fluorescence; activity, negative = inhibition: at 112 µM (top of the series).
UniProt Q8WZA2, sequence (Q8WZA2 whole entry, looked up): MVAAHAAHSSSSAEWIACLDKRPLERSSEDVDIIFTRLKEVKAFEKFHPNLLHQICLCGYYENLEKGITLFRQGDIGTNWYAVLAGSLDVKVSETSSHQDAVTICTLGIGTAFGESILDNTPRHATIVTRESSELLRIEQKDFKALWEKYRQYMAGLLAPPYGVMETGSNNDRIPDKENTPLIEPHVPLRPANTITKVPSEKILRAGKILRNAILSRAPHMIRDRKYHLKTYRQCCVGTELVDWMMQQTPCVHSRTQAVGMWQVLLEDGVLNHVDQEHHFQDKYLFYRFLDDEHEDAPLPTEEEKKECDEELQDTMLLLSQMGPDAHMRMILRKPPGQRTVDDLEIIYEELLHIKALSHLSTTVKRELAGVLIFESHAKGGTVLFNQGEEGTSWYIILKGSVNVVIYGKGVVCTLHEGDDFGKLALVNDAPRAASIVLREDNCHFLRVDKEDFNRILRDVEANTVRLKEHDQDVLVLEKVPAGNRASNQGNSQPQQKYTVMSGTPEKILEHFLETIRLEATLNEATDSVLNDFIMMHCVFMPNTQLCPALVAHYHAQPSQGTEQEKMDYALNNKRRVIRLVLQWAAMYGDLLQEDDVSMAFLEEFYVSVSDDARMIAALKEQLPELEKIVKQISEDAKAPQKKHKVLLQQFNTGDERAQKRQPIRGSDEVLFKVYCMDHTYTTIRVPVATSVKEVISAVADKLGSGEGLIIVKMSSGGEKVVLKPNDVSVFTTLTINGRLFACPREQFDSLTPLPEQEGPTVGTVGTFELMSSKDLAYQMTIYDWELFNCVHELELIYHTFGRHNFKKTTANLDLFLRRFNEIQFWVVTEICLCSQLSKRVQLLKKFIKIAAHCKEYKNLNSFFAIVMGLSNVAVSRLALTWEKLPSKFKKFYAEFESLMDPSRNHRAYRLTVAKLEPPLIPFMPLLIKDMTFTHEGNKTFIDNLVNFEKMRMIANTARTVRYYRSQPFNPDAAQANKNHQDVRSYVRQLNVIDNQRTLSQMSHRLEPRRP
Procedure, shortened: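 Normalized against a 6.5 mM cAMP agonist control, compounds were tested on 100 nM EPAC2 exchanging Rap1B-bound BODIPY-GDP (250 nM) for 50 uM GDP. Fluorescence drop (ex 480, em 540 nm) was tracked at room temperature over 30 min at 5-min intervals.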
Note: nearly all actives have a fitted effect of over 40% in size.
Potency is the fitted concentration of half-maximal effect; tags give direction and shape of the fitted curve.

Row | Compound | activity, negative = inhibition | Potency
1 | Cc1cccc(-c2cnc(C)nc2C2CCCN(C(=O)c3cccc(Cn4cccn4)c3)C2)c1 (configuration not stated) | inactive: -16.2% | –
2 | CC(=O)c1ccc(F)c(-c2cc(C)cc3c2OC(CNC(=O)c2ccnn2C)C3)c1 (configuration not stated) | – | inconclusive [inhibitor, single point]
3 | CC(=O)C1CCC2C3CCC4=CC(=O)CC[C@@]4(C)C3CC[C@]12C (some centres not stated) | – | inconclusive [inhibitor, full curve]
4 | COc1ccc(CNc2nc(-c3ccc4c(c3)OCO4)nc3ccccc23)c(OC)c1 | inactive: -14.8% | –
5 | CC(/C=C/c1cccc(Oc2ccc(F)cc2)c1)N(O)C(N)=O (configuration not stated) | – | active: 50.1 µM and active: 79.4 µM
6 | CC(C)c1c(C(=O)NCCN2CCOCC2)cnn1-c1nccc(-c2cccs2)n1 | inactive: -0.272% | –
7 | COc1cccc(-c2ccc3ncnc(N(C)Cc4ccco4)c3c2)c1 | – | inconclusive [inhibitor, full curve, poor fit]
8 | CS(=O)(=O)c1ccc(-c2cccc3c2OC(CNC(=O)c2ccnc(Cl)c2)C3)cc1 (configuration not stated) | – | inconclusive [inhibitor, full curve, poor fit]
9 | OC(c1cccnc1)c1ccc2c(c1)CN(Cc1ccc(-c3ccccc3Cl)o1)CCO2 (configuration not stated) | inactive: -16% | –
10 | COc1ccccc1CC(Cc1nc2ccccc2[nH]1)c1nc2ccccc2[nH]1 (configuration not stated) | – | inconclusive [inhibitor, partial curve, poor fit]
11 | O=C(O)CCCCCCCCc1cn(CN2C(=O)c3ccccc3C2=O)nn1 | – | inconclusive [inhibitor, partial curve, poor fit]
12 | O=C(c1cc(C(F)(F)F)cc(C(F)(F)F)c1)N1CCC2(CCCN(Cc3ccncc3)C2)CC1 | – | inconclusive [inhibitor, partial curve, poor fit]
13 | CN(C)c1nc2cc3c(cc2cc1CN(CC1CCCO1)C(=O)c1cccc(F)c1)OCO3 (configuration not stated) | – | inconclusive [inhibitor, full curve, poor fit]
14 | CC#C[C@]1(O)CC[C@H]2[C@@H]3CCC4=CC(=O)CCC4=C3[C@H](c3ccc(N(C)C)cc3)C[C@@]21C | – | inconclusive [inhibitor, partial curve]
15 | O=S1(=O)CCO[C@H]2Cc3ccccc3[C@H]2N1Cc1ccccc1Br | – | inconclusive [inhibitor, partial curve, poor fit]
16 | Cc1oc(-c2ccccc2NC(=O)c2ccccn2)nc1CNC(=O)c1cccc(C#CC(C)(C)O)c1 | inactive: -11.5% | –
17 | CN(C)CC/C=C1\c2ccccc2Sc2ccc(Cl)cc21 | – | inconclusive [inhibitor, partial curve]
